This is one part of the list. At the low end of the ranking, values are background and their order means little. The protein was read in a cell extract, so binding may be indirect.
Molecular target: T1, HNF4alpha2 (COS-7 nuclear extract) (UniProt P41235)
T1 sequence: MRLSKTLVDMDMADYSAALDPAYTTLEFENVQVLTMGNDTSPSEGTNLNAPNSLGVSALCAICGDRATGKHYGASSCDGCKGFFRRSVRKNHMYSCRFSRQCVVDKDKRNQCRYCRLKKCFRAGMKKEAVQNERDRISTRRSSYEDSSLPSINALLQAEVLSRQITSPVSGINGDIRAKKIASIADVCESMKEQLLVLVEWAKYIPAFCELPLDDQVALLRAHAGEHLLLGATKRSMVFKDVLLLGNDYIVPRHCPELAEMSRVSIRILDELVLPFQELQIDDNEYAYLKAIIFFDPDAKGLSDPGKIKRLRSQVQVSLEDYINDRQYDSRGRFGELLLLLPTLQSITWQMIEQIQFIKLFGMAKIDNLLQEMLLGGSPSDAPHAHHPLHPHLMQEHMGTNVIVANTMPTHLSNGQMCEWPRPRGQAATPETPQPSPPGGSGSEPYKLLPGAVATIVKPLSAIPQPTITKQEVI
Assay: protein-binding microarray
Settings: COS-7 nuclear extract on double-stranded Agilent 4x180k PBM; binding buffer, salt, pH and temperature not given; high values mean tight binding; double strand, one strand shown; sequences stand for … in …GCCTAGGGAGATTAGAGTATCGGTCGA

Row | Sequence | binding signal (log2 normalized intensity)
1 | CCTCAATGCTATCTCCCAGTTCTTTTGACC | 2.52
2 | GGGGGCGACCTGCTGGACGGGAGGAAAACT | -1.17
3 | CACTGCTCACAGGTTGTACTATGACCCAAA | 5.42
4 | TAATGAGGCCACTCCTGATAGCTAGAGAGT | -1.15
5 | GTCAGAGATTTCTTTACCATACCAGATGAA | 1.12
6 | CCTTATGACGGACAAAGGGCTCTCTCACCA | -0.701
7 | ATAGAGATTGCTTAATGCAAACTCCAGCAT | -1.11
8 | TTATGTTGGCACTTCTCTCGGCCTTAAGAG | -1.08
9 | TCACCAATGGTAACTGAAAGTCATGCTGAA | -0.962
10 | AGTGGCTTCATTCCCGAGTGCCTTTAGAGG | 1.01
11 | GTTTAGGAGGAAATAGAGAGCAGACAGGGG | -1.22
12 | CTGAGCTGGCAGGGAGGAGGGATCAAGCAG | -1.22
13 | ATGACAGTACCTCTCAAAAATCTCACTCAC | -1.02
14 | AGCATGCTTCCCAAATGGAGTGCCCTAGGA | 0.716
15 | TAATTGAGTAACCAGCTGCCTCTTGTGTTC | 1.59
16 | GCTCGGCTCGCTCTCCCTGCTGGCCTGGGA | -1.15
17 | GCTTTAGATATCAGAAATGCATGAGTGACC | 2.39
18 | TCGCGCCCCAACGGATACCTCTTTGAACTG | 0.875
19 | ACTGATTCTCCAGGAAGTTCAGGCCTCGGC | -0.913
20 | ACCAAATGGGAACATTCCTCAGGGAATTTC | -0.535
21 | ATATTAACCTTTGCCCCAGCTGTCACCCAG | 5.03
22 | GCTCTGTGCCTTGTATTTCAAAACTGATAA | 0.942
23 | GAGTTGAGTTGGAGAAGAGCAAAGATCATC | 1.72
24 | ATGCTGGGGACCTTTGGCCTTTACCTGTTA | 4.54

Row | Sequence | binding signal (log2 normalized intensity)
25 | GAACTTTTACCTAATGTTCACAATAAGAGG | 0.869
26 | CTTGAGGCTGTCTGCTATGCAGAGCTCTTT | -1.08
27 | GTCACTGCTCAAAAACACTCAGTTAATTAT | -1.14
28 | CAGGGTTCATAGATGATAGTGATAAGGATC | 1.14
29 | GTGAGCTGTCTAATTTTGCACAGCCAGCCT | -1.3
30 | TACATGAGTGATCCTGAAAACAAATAGAGC | -1.18
31 | CGCATCTTTTATAAGGGGCAGCAAACCTAC | -1.09
32 | GACAAAGGCTTTGAGTCAACACACCTGTGG | -1.23
33 | CATCTGAACTCTTCATGGACTCCTCTTATC | 1.6
34 | AAGATAAAAATCAGAGATCAAGATACAGGT | -1.03
35 | TTCAGCCGCTTTGAGGTCAATGGTAGAAAA | 1.48
36 | AAGAGGAAAAAGTGGCTTTTTAGGAAACAT | 0.195
37 | TGTTAGAATGTATTGAGAAGAAACCTTTGC | 1.9
38 | CCTATACAGACCTTTGTATATTCCCTTTGT | 2.3
39 | GAATCAAGGCAAGCCTTATCACTGTTTGGC | -0.852
40 | GTTATCCCTAGGAAGGATAAGAGCAAGAAA | -1.15
41 | CCAAAAACAAAACTGGTCATACAGCCTGAC | -1.15
42 | CAGAGAGAGAGAGAGAATGACCCTTGCTTG | 3.01
43 | AAGGGAGCACAACCCGGGCGCACAAGATGC | -1.14
44 | AAGCAAGCTCTGCAATAGAGCCACATTCTG | -1.19
45 | GGCTCAACGGGTTAGACGCACGGCAGAGCA | -0.989
46 | GAATTCTTGTCCAACTCCCCTCCCAAGGCA | 4.21
47 | GCTGTGTGAAGTGACTTGCCCTGTTCACAT | 1.82
48 | AGAGTTAATAACAGACCATGCCATGCATTT | -1.15

Row | Sequence | binding signal (log2 normalized intensity)
49 | GGCTAGAAAAGAAGGATAGAGAGTTGGGAG | -1.14
50 | CTTTCCACTCCCATTACTTCTGTTTGCATT | 1.45
51 | GCCTGCAAGTTCAAAAGGACTCCCAGAGCA | -1.12
52 | CCGTCCTGTCCTGGACTTTCCTTTGTTGGG | 2.3
53 | GTGTTCAGAGCTTGCTGCATTCCCCCACCT | 4.21
54 | CATGAGAGAAAAGAATAAAATTGTACTTCG | 1.02
55 | CCAGGGTGAGAGGGACCCTTCCTCGGTGGA | -1.14
56 | CCCTTGGAATGTGACCTTAGACCCCTGAAT | 5.74
57 | ACCTCCCCTCTGACCAGAGACATTCCAACC | 1.43
58 | CATGTAACCCCTTTTCAATTCCTTATCTCG | 1.04
59 | CTAAGAGAAATCCACACAGCACTGACCTTT | 6.22
60 | GATGATCAAAGGTCAGTCTTAGGACCACAT | 4.34
61 | ATTAGAGAACATGTACTTTGTACTGCTTAT | 4.15
62 | AAAGCGGCTCAGGAAACAGCGCTATCGGGG | -1.15
63 | GACTATTTTATTTTCCCCCTTTGAAGTCTG | 3.02
64 | ACTGCACTGTATCTTATCAGAAACACACCC | -0.299
65 | GGCCTCTCCACTTGGGTATCAGATAGTCCA | 0.681
66 | GGGTGTAAGAGTGAACTCTGACCATGCCTA | 3.07
67 | CAGAAGCAATCACAAGGAATGCCCTTATCT | 0.818
68 | AGATCCGAAGTCTAGGACGTTATCAGCAGG | 0.0613
69 | CTTTGACACAGGCGACCTTCGCTCGGCTCG | 3.46
70 | ATAGGTTCTACTCTCCCCAGTTCAAAGGTT | 5.27
71 | AAACAGAGGCTGAAATGGTTACAAAGGTCA | 4.72
72 | TTTACAGAACTCTTCGAAGACACAAAGCTT | -1.11

Row | Sequence | binding signal (log2 normalized intensity)
73 | AGTTTAAAGGCGTTTGCTCCCATCCCCCCA | 4.91
74 | GCTTGGGGTGGGGTTGGAGTCCAGAGTTCA | 3.39
75 | TGTGGACTGCTCCAGTGGACATTGGCCCTT | 6.04
76 | TTTGAAAAGCTGTAGTGAACAAGTCTCCTT | -0.942
77 | CACCCAAACCATCCCAGGCATCCAGGCCAG | -1.15
78 | AGATTGCTAGCTGAGAGACTTTATCCGTAT | -0.541
79 | TAGGATCTAGCAAATTTGGGAGGGAAGAGG | -1.08
80 | GTTGAAGTTCCAGAAGACTACAAATTCCTC | -0.798
81 | GGACTTTGTTGTTTGCCTCTGAAAACTTTT | 2.11
82 | AGTGAACTGTCTGCTATGTGTATATGAGTG | 1.78
83 | AGTCTGATTCTAGGGCCCATGCCCTTAGCC | 0.883
84 | CCTAGATGAGATAAGGTTCTGATAAAGTAT | 0.511
85 | GGTTCCTCAGAGGACCTGACATTCTCCACT | -0.989
86 | CATGTGCATTTCACAATAGGGTTCAAACTC | 2.14
87 | TGAGGGGACAAAGTTCGTGGAAAGTGGAAG | 2.34
88 | ACAACATGAGTAAACGAGCTATTTAGATAA | -1.14
89 | AAATACATAGCTGGGATGAGATACCCATTC | -1.12
90 | CTTCACTGACGAAACTCACATACTGTGGAC | 0.966
91 | GATGATTGTCCCTTTTCTATCCAGATGATC | 1.48
92 | CTTGGACTCTGAAGGAATGTAAACTCCAAG | 0.219
93 | ACCTCCCTGGGCATGTCTGCTCCCTGAGTT | 1.1

— paper PMC10726135
